According to paper PMC11094772 (Protein Science : A Publication of the Protein Society, 2024):

Target: the molecule itself
Experiment: SEC

B1: MBP-BRAF(S365A) (natural protein)
chain: not shown
With B1 the “stoichiometry N” value was 2.
